# Source: the supplement of paper PMC6828730
# “And” between values parts separate entries of the source, which are not always exact repeats. Identical values can stand only once. Counter-ions that a name gives are not always drawn. This is one part of the list. Many values rest on one well or one pass, so single values are uncertain.
# Tested on: hiPSC-derived cardiomyocytes
# Assay: time to death of most cells in well after compound addition (days); higher = less cardiotoxic; extreme values may be limits of the assay
# Conditions: screen: 2; 10 µM
row,Compound,time to death of most cells in well
1,COc1cc2nccc(Oc3ccc(NC(=O)C4(C(=O)Nc5ccc(F)cc5)CC4)cc3)c2cc1OC,> 7
2,COCCOc1ccc2c(c1)ncn2-c1ccc2cccc(N3CCC(N)CC3)c2n1,5.5
3,Cc1cnc(Nc2ccc(F)cc2Cl)nc1-c1c[nH]c(C(=O)NC(CO)c2cccc(Cl)c2)c1 (centres undefined),2
4,Nc1nccc(Oc2ccc(NC(=O)c3c[nH]cc(-c4ccc(F)cc4)c3=O)cc2F)c1Cl,5
5,Cc1[nH]c(/C=C2\C(=O)Nc3ccc(S(=O)(=O)Cc4c(Cl)cccc4Cl)cc32)c(C)c1C(=O)N1CCC[C@@H]1CN1CCCC1,2
6,OC(c1cc(-c2ccc(Cl)cc2)nc2ccccc12)C1CCCCN1 (centres undefined) [Vacquinol-1],1
7,Nc1nc(N)c(N=O)c(OCC2CCCCC2)n1,> 7
8,CCCNC(=O)Nc1ccc(Oc2ncnc3cc(OC)c(OC)cc23)cc1Cl,> 7
9,Cc1cnc(-c2cnc(NCCNc3ccc(C#N)cn3)nc2-c2ccc(Cl)cc2Cl)[nH]1,> 7 and 5.5
10,COc1cc2c(Oc3ccc(NC(=O)C4(C(=O)Nc5ccc(F)cc5)CC4)cc3F)ccnc2cc1OCCCN1CCOCC1,3
11,CC(C)CCN1c2nc(Nc3cc(F)c(O)c(F)c3)ncc2N(C)C(=O)C1C (centres undefined),> 7
12,COc1cc(Nc2ncc3c(n2)-c2ccc(Cl)cc2C(c2c(F)cccc2OC)=NC3)ccc1C(=O)O [Alisertib (MLN8237)],> 7
13,COc1ccc2c(Oc3ccc(NC(=O)c4c(C)n(CC(C)(C)O)n(-c5ccccc5)c4=O)nc3)ccnc2c1,> 7
14,"CC[C@H](Nc1ncnc2[nH]cnc12)c1nc2cccc(F)c2c(=O)n1-c1ccccc1 [Idelalisib (CAL-101, GS-1101)]",> 7
15,CCCS(=O)(=O)Nc1ccc(F)c(C(=O)c2c[nH]c3ncc(Cl)cc23)c1F,> 7
16,O=C(c1ccc(Nc2nccc(-c3cc4ccccc4s3)n2)cc1)N1CCC(N2CCCC2)CC1 [IKK-16 (IKK Inhibitor VII)],1
17,C=CC(=O)N1CCCC(n2c(=O)n(-c3ccc(Oc4ccccc4)cc3)c3c(N)ncnc32)C1 (centres undefined) [ONO-4059 analogue],3
18,N#Cc1c(Oc2ccc(F)c(NC(=O)Cc3cccc(C(F)(F)F)c3)c2)ccc2nc(NC(=O)C3CC3)sc12,2
19,CN(c1ccccc1CNc1nc(Nc2ccc3c(c2)CC(=O)N3)ncc1C(F)(F)F)S(C)(=O)=O,6

row,Compound,time to death of most cells in well
1,N#Cc1ccc2[nH]c(O)c(-c3ccc(CN4CCOCC4)cn3)c2c1,> 7
2,Cc1[nH]c2ccccc2c1C1=C(NCCc2ccc(F)cc2)C(=O)N(C)C1=O,2
3,NC[C@@](O)(c1ccc(Cl)cc1)c1ccc(-c2cn[nH]c2)cc1,1
4,CN(c1ncccc1CNc1nc(Nc2ccc3c(c2)CC(=O)N3)ncc1C(F)(F)F)S(C)(=O)=O,> 7 and 2.5
5,NC1(Cc2ccc(Cl)cc2)CCN(c2ncnc3[nH]ccc23)CC1,6.5
6,Nc1ncnc2c1c(-c1cccc(OCc3ccccc3)c1)cn2C1CC(CN2CCC2)C1 (centres undefined),2.5
7,CC(C)N(CCC(=O)c1ccc2ccccc2c1)Cc1ccccc1,0.5
8,O=c1ccc2ccc(O)c(O)c2o1 [Daphnetin],5
9,CN1CC[C@H](c2c(O)cc(O)c3c(=O)cc(-c4ccccc4Cl)oc23)[C@H](O)C1 [Flavopiridol HCl],3
10,Cn1sc(=O)n(Cc2ccccc2)c1=O,0.5
11,O=c1c(-c2ccc(O)cc2)coc2cc(O)cc(O)c12 [Genistein],> 7
12,O=C(Nc1c[nH]nc1-c1nc2ccc(CN3CCOCC3)cc2[nH]1)NC1CC1,3
13,"CO[C@H]1C[C@@H]2CC[C@@H](C)[C@@](O)(O2)C(=O)C(=O)N2CCCC[C@H]2C(=O)O[C@H]([C@H](C)C[C@@H]2CC[C@@H](OP(C)(C)=O)[C@H](OC)C2)CC(=O)[C@H](C)/C=C(\C)[C@@H](O)[C@@H](OC)C(=O)[C@H](C)C[C@H](C)/C=C/C=C/C=C/1C [Ridaforolimus (Deforolimus, MK-8669)]",5
14,CNCc1ccc(-c2cc(-c3nc(-c4ccc(S(=O)(=O)C(C)C)cc4)cnc3N)on2)cc1,2.5
15,Nc1ccc(C(=O)Nc2cccc(-c3nc(N4CCOCC4)c4oc5ncccc5c4n3)c2)cn1,> 7
16,NC(=O)c1ccc(N(C(N)=O)c2c(F)cccc2F)nc1-c1ccc(F)cc1F,2
17,COc1cc(CCc2cc(NC(=O)c3ccc(N4CC(C)NC(C)C4)cc3)n[nH]2)cc(OC)c1 (centres undefined),> 7
18,C=CC(=O)Nc1cc(Nc2nccc(-c3cn(C)c4ccccc34)n2)c(OC)cc1N(C)CCN(C)C [Osimertinib (AZD9291)],3.5

# Same assay, conditions: screen: 3; 10 µM
row,Compound,time to death of most cells in well
1,COc1cc2nccc(Oc3ccc(NC(=O)C4(C(=O)Nc5ccc(F)cc5)CC4)cc3)c2cc1OC,> 7
2,COCCOc1ccc2c(c1)ncn2-c1ccc2cccc(N3CCC(N)CC3)c2n1,5.5
3,Cc1cnc(Nc2ccc(F)cc2Cl)nc1-c1c[nH]c(C(=O)NC(CO)c2cccc(Cl)c2)c1 (centres undefined),3
4,Nc1nccc(Oc2ccc(NC(=O)c3c[nH]cc(-c4ccc(F)cc4)c3=O)cc2F)c1Cl,> 7
5,Cc1[nH]c(/C=C2\C(=O)Nc3ccc(S(=O)(=O)Cc4c(Cl)cccc4Cl)cc32)c(C)c1C(=O)N1CCC[C@@H]1CN1CCCC1,0.5
6,OC(c1cc(-c2ccc(Cl)cc2)nc2ccccc12)C1CCCCN1 (centres undefined) [Vacquinol-1],3
7,Nc1nc(N)c(N=O)c(OCC2CCCCC2)n1,> 7
8,CCCNC(=O)Nc1ccc(Oc2ncnc3cc(OC)c(OC)cc23)cc1Cl,> 7
9,Cc1cnc(-c2cnc(NCCNc3ccc(C#N)cn3)nc2-c2ccc(Cl)cc2Cl)[nH]1,> 7
10,COc1cc2c(Oc3ccc(NC(=O)C4(C(=O)Nc5ccc(F)cc5)CC4)cc3F)ccnc2cc1OCCCN1CCOCC1,6
11,CC(C)CCN1c2nc(Nc3cc(F)c(O)c(F)c3)ncc2N(C)C(=O)C1C (centres undefined),> 7
12,COc1cc(Nc2ncc3c(n2)-c2ccc(Cl)cc2C(c2c(F)cccc2OC)=NC3)ccc1C(=O)O [Alisertib (MLN8237)],> 7
13,COc1ccc2c(Oc3ccc(NC(=O)c4c(C)n(CC(C)(C)O)n(-c5ccccc5)c4=O)nc3)ccnc2c1,> 7
14,"CC[C@H](Nc1ncnc2[nH]cnc12)c1nc2cccc(F)c2c(=O)n1-c1ccccc1 [Idelalisib (CAL-101, GS-1101)]",> 7
15,CCCS(=O)(=O)Nc1ccc(F)c(C(=O)c2c[nH]c3ncc(Cl)cc23)c1F,> 7
16,O=C(c1ccc(Nc2nccc(-c3cc4ccccc4s3)n2)cc1)N1CCC(N2CCCC2)CC1 [IKK-16 (IKK Inhibitor VII)],1.5
17,C=CC(=O)N1CCCC(n2c(=O)n(-c3ccc(Oc4ccccc4)cc3)c3c(N)ncnc32)C1 (centres undefined) [ONO-4059 analogue],> 7
18,N#Cc1c(Oc2ccc(F)c(NC(=O)Cc3cccc(C(F)(F)F)c3)c2)ccc2nc(NC(=O)C3CC3)sc12,3.5
19,CN(c1ccccc1CNc1nc(Nc2ccc3c(c2)CC(=O)N3)ncc1C(F)(F)F)S(C)(=O)=O,> 7

row,Compound,time to death of most cells in well
1,N#Cc1ccc2[nH]c(O)c(-c3ccc(CN4CCOCC4)cn3)c2c1,> 7
2,Cc1[nH]c2ccccc2c1C1=C(NCCc2ccc(F)cc2)C(=O)N(C)C1=O,> 7
3,NC[C@@](O)(c1ccc(Cl)cc1)c1ccc(-c2cn[nH]c2)cc1,3
4,CN(c1ncccc1CNc1nc(Nc2ccc3c(c2)CC(=O)N3)ncc1C(F)(F)F)S(C)(=O)=O,> 7
5,NC1(Cc2ccc(Cl)cc2)CCN(c2ncnc3[nH]ccc23)CC1,> 7
6,Nc1ncnc2c1c(-c1cccc(OCc3ccccc3)c1)cn2C1CC(CN2CCC2)C1 (centres undefined),> 7
7,CC(C)N(CCC(=O)c1ccc2ccccc2c1)Cc1ccccc1,> 7
8,O=c1ccc2ccc(O)c(O)c2o1 [Daphnetin],> 7
9,CN1CC[C@H](c2c(O)cc(O)c3c(=O)cc(-c4ccccc4Cl)oc23)[C@H](O)C1 [Flavopiridol HCl],5.5
10,Cn1sc(=O)n(Cc2ccccc2)c1=O,> 7
11,O=c1c(-c2ccc(O)cc2)coc2cc(O)cc(O)c12 [Genistein],> 7
12,O=C(Nc1c[nH]nc1-c1nc2ccc(CN3CCOCC3)cc2[nH]1)NC1CC1,5
13,"CO[C@H]1C[C@@H]2CC[C@@H](C)[C@@](O)(O2)C(=O)C(=O)N2CCCC[C@H]2C(=O)O[C@H]([C@H](C)C[C@@H]2CC[C@@H](OP(C)(C)=O)[C@H](OC)C2)CC(=O)[C@H](C)/C=C(\C)[C@@H](O)[C@@H](OC)C(=O)[C@H](C)C[C@H](C)/C=C/C=C/C=C/1C [Ridaforolimus (Deforolimus, MK-8669)]",> 7
14,CNCc1ccc(-c2cc(-c3nc(-c4ccc(S(=O)(=O)C(C)C)cc4)cnc3N)on2)cc1,4
15,Nc1ccc(C(=O)Nc2cccc(-c3nc(N4CCOCC4)c4oc5ncccc5c4n3)c2)cn1,> 7
16,NC(=O)c1ccc(N(C(N)=O)c2c(F)cccc2F)nc1-c1ccc(F)cc1F,3
17,COc1cc(CCc2cc(NC(=O)c3ccc(N4CC(C)NC(C)C4)cc3)n[nH]2)cc(OC)c1 (centres undefined),> 7
18,C=CC(=O)Nc1cc(Nc2nccc(-c3cn(C)c4ccccc34)n2)c(OC)cc1N(C)CCN(C)C [Osimertinib (AZD9291)],3.5
